PubChem BioAssay AID1347417 (National Center for Advancing Translational Sciences (NCATS), 2020)
Among all 120,000 compounds or so, about 5,300 (4.4%) were called active. The shares of active, inactive and inconclusive entries below differ from those in the screen. The call rests on the fitted dose curve; in most records, active means well fitted inhibition curve with a large enough effect; inconclusive means small, poorly fitted or top-dose-only effect; inactive means no such curve, though single readings can be large or run the other way. A potency beside an inconclusive call is a rough fit, not a confirmed value.
Potency means the concentration at half of the fitted maximal effect; tags describe the fitted curve by direction and shape.

Experiment: qHTS Primary assay for Inhibitors of Plasmodium falciparum Dd2 growth in vitro; further: nearly all actives have a fitted effect of over 65% in size;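 on activity, negative = inhibition: plate controls were DMSO vehicle for no effect and reference drug for full effect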
Details: P. falciparum Dd2 growth, SYBR Green, 72 h; activity, negative = inhibition: at 28.9 µM (top of the series) unless noted; series mostly up to 28.9 µM
Procedure, shortened: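 Infected erythrocytes (Dd2, 0.3% parasitemia, 2.5% hematocrit final) are added to compound in RPMI-1640/Albumax II medium, grown 72 h at 37C in low oxygen, then lysed with saponin/Triton-X containing SYBR Green and read by fluorescence.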
For `CCC(=O)N1CCc2cc(Br)cc(S(=O)(=O)N3CCCC(C(=O)Nc4cccc(C)c4C)C3)c21` (stereo not drawn), the Potency was active: 5.01 µM.
In the case of `Cc1ccccc1NC(=O)c1c(NC(=O)c2ccco2)sc2c1CCC(C(C)(C)C)C2` (stereo not drawn), the Potency is reported as inconclusive: 1.26 µM [inhibitor, full curve, poor fit].
In the case of `Cc1ncsc1CN1CCC(N2C(=O)C(OCC3CC3)C23CCCCC3)CC1` (stereo not drawn), the Potency is reported as inconclusive: 17.8 µM [inhibitor, single point].
In the case of `COc1ccc(N2C(=O)CS(=O)(=O)C23C(=O)N(Cc2ccc(F)cc2)c2ccc(C)cc23)cc1` (stereo not drawn), the Potency is reported as inconclusive: 10 µM [inhibitor, single point].
With `O=C(c1ccccc1)N1CCC(Oc2cccc(F)c2)C1` (stereo not drawn) the Potency was inconclusive: 17.8 µM [inhibitor, single point].
In the case of `CCOC(=O)C1=CN(CC(=O)N(CC)c2cccc(C)c2)S(=O)(=O)N=C1C`, the Potency is reported as inconclusive: 12.6 µM [inhibitor, single point].
With `COc1cccc(C(=O)N2CCC(N3C[C@H](O)C[C@H]3C(=O)NCc3ccc(F)cc3)CC2)c1` the Potency was inconclusive: 17.8 µM [inhibitor, single point].
For `COc1ccccc1N1CCN(C(=O)C2N(C(C)C)C(=O)C23CCCC3)CC1` (stereo not drawn), the “activity, negative = inhibition” value was inactive: -2.7%.
In the case of `COC(=O)CNC(=O)NCCc1ncc(C)n1C1CCCCCC1`, the Potency is reported as inconclusive: 5.01 µM [inhibitor, partial curve].
With `CN(C)CCCNC(=O)C1CCCN(S(=O)(=O)c2ccccc2)CCC(=O)NCC1` (stereo not drawn) the “outcome” value was “inactive”.
In the case of `COCC(=O)NC1CCC12CCN(C(=O)NCc1ccccc1)CC2` (stereo not drawn), the “activity, negative = inhibition” value is reported as inactive: -11.7%.
With `NS(=O)(=O)c1ccc(CCNC(=O)c2ccc3nc(CCc4ccccc4)oc3c2)cc1` the Potency was inconclusive: 0.0355 µM [inhibitor, full curve, poor fit].
With `COc1ccc(N2CCN(C(=O)c3c(OC)cc(=O)n4c3CCCC4)CC2)cc1` the “outcome” value was “inactive”.
In the case of `CCc1ccc(C(=O)c2cn(CC(=O)Nc3cc(OC)ccc3OC)c3nc(C)ccc3c2=O)cc1`, the Potency is reported as inconclusive: 6.31 µM [inhibitor, partial curve, poor fit].
In the case of `Cc1ccc(C(=O)N2CCCCC2)cc1NC(=O)c1nsc2ccccc12`, the Potency is reported as inconclusive: 11.2 µM [inhibitor, single point].
With `Cc1c(CCNC(=O)c2ccc(Br)o2)sc2nc(-c3ccc(Cl)cc3)nn12` the “activity, negative = inhibition” value was inactive: -16.4%.
For `O=C1CCn2nnc(CNc3cccc(C(F)(F)F)c3)c2CN1Cc1ccccc1`, the Potency was inconclusive: 15.8 µM [inhibitor, partial curve, poor fit].
With `COc1ccccc1C(=O)N1CCC2(CC1)c1nccn1-c1ccccc1CN2CC(C)C` the Potency was active: 0.891 µM.
